The record followed here is PMC7819943, “Rice protein-binding microarrays: a tool to detect cis-acting elements near promoter regions in rice”.

Some of the results follow.

The experiment addresses T1, OsWOX13 (Oryza sativa, UniProt Q5QMM3 1-267).
T1 sequence: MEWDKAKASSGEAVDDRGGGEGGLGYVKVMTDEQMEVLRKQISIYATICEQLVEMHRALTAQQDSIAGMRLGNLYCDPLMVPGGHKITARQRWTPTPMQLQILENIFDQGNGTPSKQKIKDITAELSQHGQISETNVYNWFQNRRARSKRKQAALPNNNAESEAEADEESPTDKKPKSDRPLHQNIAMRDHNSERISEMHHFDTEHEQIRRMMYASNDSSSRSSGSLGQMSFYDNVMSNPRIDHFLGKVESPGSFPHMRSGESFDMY
Description: protein-binding microarray (RPBM); PBS, 2% BSA, 51.3 ng/ul salmon testes DNA, 50 uM zinc acetate, 200 nM TF, 25 C, 1 h; high values mean tight binding. Conditions: protein: recombinant; tags: N-terminal polyhistidine and DsRed monomer fusion (pET32a); label: CyDye5-dUTP incorporated in the synthesized complementary strand; 3' TTTTT single-stranded linker to array surface; dsDNA, one strand shown. In short, it runs like this: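 Binding signal is defined as the fluorescence intensity of each feature in arbitrary units, read on an Axon 4000B scanner. Transcription factors with N-terminal polyhistidine and DsRed fusions came from E. coli BL21-CodonPlus and were purified on Ni–NTA. They were incubated at 200 nM for 1 h at 25 °C on a custom Agilent array that had been made double-stranded with Cy5-dUTP, with 50 µM zinc acetate present, and the array was washed.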
Take “ATATTTTAAATAGTACTAAATTATTCTATAAATTTGGTCACGGAGTCACCTAGTGCAG”: the binding signal is 4350 fluorescence intensity (a.u.).

Take “GATCTAAACATGGCCTTAATTTATCGTCATAATTAAATGACGGAGTCACCTAGTGCAG”: the binding signal is 5690 fluorescence intensity (a.u.). For “CACTAATTACTTTCGCATCCTACGTGCATTTACTTAATCCCGGAGTCACCTAGTGCAG”, the binding signal was 34000 fluorescence intensity (a.u.). As for “CCCAATGATTAATGTCTTAATCACATTGATTAGCAACTAACGGAGTCACCTAGTGCAG”, the figure is 30300 fluorescence intensity (a.u.); as for “TATATGACTCCAGATTGATTCATCACGGACATCGTGAAGACGGAGTCACCTAGTGCAG”, 7570 fluorescence intensity (a.u.); as for “TCAATTACAGTCAAATGGATAATAAATGCATCTTGTTGATCGGAGTCACCTAGTGCAG”, 3240 fluorescence intensity (a.u.). The figure for “ATATATGCATAGTTAATTGGTTATTATATGTTGTACTGTCCGGAGTCACCTAGTGCAG” is 17700 fluorescence intensity (a.u.); for “AAATCCCATAACAATCAATCATGCTGTGCCTGTGCTTAACCGGAGTCACCTAGTGCAG” it is 20200 fluorescence intensity (a.u.); for “CTTATTCACTTGTGATTGTGATGATTAGCGAACAGAGTTGCGGAGTCACCTAGTGCAG” it is 18700 fluorescence intensity (a.u.). Turning to “AATAGATTACTCCACTATTTAGTAAGTACTCCCGTTGTTTCGGAGTCACCTAGTGCAG”, the binding signal is 3830 fluorescence intensity (a.u.).

Regarding “AAAATACTGACTGGATTGTCATACGTGTGCCACGTTGGCCCGGAGTCACCTAGTGCAG”, the binding signal was 4630 fluorescence intensity (a.u.).

Take “GACATTTGTGCCACTTGGCATGAATCTAATTTAACATTCTCGGAGTCACCTAGTGCAG”: the binding signal was 46300 fluorescence intensity (a.u.).

“TAAGCAATTACAGTAACACACTATGTTACTATAAAACATGCGGAGTCACCTAGTGCAG”: the binding signal is 4780 fluorescence intensity (a.u.). In the case of “TTCTCATAAATTTAAGGTGAAATGTCCATTTTGTCCATACCGGAGTCACCTAGTGCAG”, the binding signal is 3740 fluorescence intensity (a.u.).

With “CATAGACCATTTCATTTGATTAGCACTCCAAATAGACACACGGAGTCACCTAGTGCAG”, the binding signal was 11200 fluorescence intensity (a.u.).

As to “CATGATAGATCAGGCAGAGAGCAGATCAGAGCAAGCATGTCGGAGTCACCTAGTGCAG”, the binding signal was 11800 fluorescence intensity (a.u.). As for “CAACCAATCACACCCCAAGCTGAGCAAATACTCCACGAAACGGAGTCACCTAGTGCAG”, the figure is 5790 fluorescence intensity (a.u.); as for “AATAAAATAAATGATCAAATGAATTATGAAAACTCGTGACCGGAGTCACCTAGTGCAG”, 5260 fluorescence intensity (a.u.). As for “TCTCTCATCAATTGGGTTGATATTATATTGGCAGGGCCAGCGGAGTCACCTAGTGCAG”, the figure is 4760 fluorescence intensity (a.u.). Regarding “ATGTTTGGAAATTAATTATAAATATTAAACGTAGACTATTCGGAGTCACCTAGTGCAG”, the binding signal was 9050 fluorescence intensity (a.u.).

With “GTGAAGATTTAATTGTAACGAAGACAATAGTGTAATTGGACGGAGTCACCTAGTGCAG”, the binding signal was 16400 fluorescence intensity (a.u.). The figure for “GGGGTGACAAATTAATTGATTTGATCCCAAGATAATGGTGCGGAGTCACCTAGTGCAG” is 50700 fluorescence intensity (a.u.); for “AGATGAGAGTAGACAATTAATTTATGTATGTTTTCTGTGGCGGAGTCACCTAGTGCAG” it is 3150 fluorescence intensity (a.u.); for “CCTAACAGTATTGATAATCAGTAGCCCTGATAATTAAGATCGGAGTCACCTAGTGCAG” it is 15200 fluorescence intensity (a.u.).

As to “TAGATTAGCTTAATTAATACCATTTTCATTAGTAGGAAAGCGGAGTCACCTAGTGCAG”, the binding signal was 25900 fluorescence intensity (a.u.). As for “AATATATTGACATTGATATCTTATAAAGAGCCTATAGATACGGAGTCACCTAGTGCAG”, the figure is 5820 fluorescence intensity (a.u.); as for “TTCAGCGTAATTTGTATGGTTCTATTAACCTGCAATTTCGCGGAGTCACCTAGTGCAG”, 7150 fluorescence intensity (a.u.). The figure for “AATAGATTGTTTGCTCACGTTAACATAGCAACATCTGGAACGGAGTCACCTAGTGCAG” is 30900 fluorescence intensity (a.u.); for “CTATATCAAATTATTATCAATCCGTTATATATTCTCACCGCGGAGTCACCTAGTGCAG” it is 14800 fluorescence intensity (a.u.); for “CGTTTTGATGGATGGCTCAGATCGGTTCCGAATCGATCAACGGAGTCACCTAGTGCAG” it is 5120 fluorescence intensity (a.u.). As for “AACATATAACCAATCAGCATTATATTGCTTTAATCATCTCCGGAGTCACCTAGTGCAG”, the figure is 13600 fluorescence intensity (a.u.); as for “TAACTACACAGATTGCATGTAAATTACGGGACGAACCTTTCGGAGTCACCTAGTGCAG”, 5900 fluorescence intensity (a.u.). Regarding “TGCTGTCATCAAATTGTCTATCATTTCATTCATGCAAGGTCGGAGTCACCTAGTGCAG”, the binding signal is 4990 fluorescence intensity (a.u.). As for “GTGGTTACCGAGTAATTGAGACAGAAACAGGTTAAGTTGGCGGAGTCACCTAGTGCAG”, the figure is 8760 fluorescence intensity (a.u.). As for “ATTTAAATTGGATATATAAACTTTTGACTTATAAACTTTACGGAGTCACCTAGTGCAG”, the figure is 10400 fluorescence intensity (a.u.); as for “TTTGCCTTTGATTAATAAAATACTGGTGCTTAGTACTACACGGAGTCACCTAGTGCAG”, 6480 fluorescence intensity (a.u.). The figure for “TTCAGAATGATTAGCCGGTCACGACCTGTTCTAATGACCCCGGAGTCACCTAGTGCAG” is 18300 fluorescence intensity (a.u.); for “CTAAAATTTAATTAATCATACGACAGTGAATTTCTCATTTCGGAGTCACCTAGTGCAG” it is 20300 fluorescence intensity (a.u.). In the case of “ATACAATTGATTATAACTTATAACACTTATTAATGTCTTACGGAGTCACCTAGTGCAG”, the binding signal was 24900 fluorescence intensity (a.u.).

On to “GACATGACTGGACTAACTTGGATCATATTGCTGCTAGCTACGGAGTCACCTAGTGCAG”, for which the binding signal is 12900 fluorescence intensity (a.u.). As for “ATTGTAATTAATTAAGTACTGACAGTACTGAGCACTGACACGGAGTCACCTAGTGCAG”, the figure is 28400 fluorescence intensity (a.u.); as for “GTAGCATTAGATTGTGTTAATTCTGATACCATGGGGCTATCGGAGTCACCTAGTGCAG”, 6200 fluorescence intensity (a.u.).
